Assay results taken from the supplement of paper PMC3334620.
Whole data set: some 33,000 sequences, median “E-score (-0.5 to 0.5)” near -0.017, cut for the highest 2% near 0.3. The list shows a part of the results.

Biological target: T1, Sut1 (UniProt P53032)
T1 sequence: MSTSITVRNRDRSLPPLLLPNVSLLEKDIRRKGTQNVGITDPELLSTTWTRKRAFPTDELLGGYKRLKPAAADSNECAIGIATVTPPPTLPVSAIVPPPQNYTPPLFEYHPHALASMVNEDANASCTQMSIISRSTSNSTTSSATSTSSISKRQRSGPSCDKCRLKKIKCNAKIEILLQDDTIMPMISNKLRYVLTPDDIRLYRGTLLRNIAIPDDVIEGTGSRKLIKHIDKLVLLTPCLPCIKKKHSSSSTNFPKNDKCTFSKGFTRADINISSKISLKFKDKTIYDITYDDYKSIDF
Assay: PBM E-score (8-mer binding enrichment) (E-score (-0.5 to 0.5)); higher = stronger / more preferred TF binding; most listed sequences are background and not binding sites
Details: protein concentration: 200 nM; construct: GST-full length
Procedure: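 Universal 'all 10-mer' protein binding microarrays (Agilent AMADID 015681) probed with GST-tagged S. cerevisiae TFs (full-length or DBD) made by in vitro transcription/translation (PURExpress), about 100-200 nM. Bound TF was detected with fluorescent anti-GST. Each ungapped 8-mer (which stands for itself and its reverse complement) is scored by the PBM enrichment score (E-score), a modified Wilcoxon-Mann-Whitney statistic from -0.5 to +0.5, computed with the Universal PBM Analysis Suite. Scale: above 0.35 generally sequence-specific binding.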

Sequence	PBM E-score
CCCAGCGC	-0.145
CATGCGCC	-0.176
AACAGGTT	-0.0198
CAATCAGC	0.0337
AGTTCATG	0.106
AATTGATG	0.225
ATGACGTC	0.00848
AAGGTCTC	-0.0653
ATCTAAAC	0.00716
GCAACGAA	0.0239
TTCGCAAA	0.303
AACCCCTG	-0.314
AGGAGAAT	-0.0881
ACTGCCAA	-0.0403
AGTTGATC	-0.034
AGAATATC	0.00262
ACGAACGA	0.0134
GTTTGTGA	0.122
AGACATGG	-0.0838
AGACGTGA	-0.00663
CCGATAGG	-0.0115
AACTGAGC	-0.0323
ATCAATGG	0.137
CGTCATGC	-0.233
AGTTAGGG	-0.154

Sequence	PBM E-score
AAACTTAA	0.262
CCCGTTCC	-0.0399
ATTACGAC	0.0741
GAGTCCCA	0.0612
ATCTAATG	0.068
CCATTAGA	-0.0717
AGAACACC	-0.107
CTACATTA	0.0331
CACAAACA	0.139
ACACAAGA	0.0649
AATCTTCC	0.0113
GAGATTCC	0.0713
AGAAGTCT	-0.0104
ATGTTAGG	-0.0213
CCTTCAGA	-0.0889
CCGGACGA	0.111
CACACGCG	-0.0971
CTCGAATC	-0.0965
CCCGGGCA	-0.229
AGACCGGG	0.0904
ACGCAAGG	-0.216
CATGTCCG	0.382
AGCGCTAG	-0.126
CTACCTCA	-0.036
CAGTAGGA	-0.329

Sequence	PBM E-score
CACCGGTC	-0.223
AGGGTTGA	-0.17
AAATCCTT	-0.0419
TACCGGCA	-0.0381
AACAAAAC	0.241
ACCGACTG	-0.0196
ATAACAGA	0.137
GCCGTGGA	-0.108
AGAACAAC	0.179
CGACACTA	-0.00571
CATTTATA	0.185
CTGGTTCA	-0.0784
AAGCCCTT	-0.245
AGGGGACG	-0.235
CATACCCA	-0.168
AATAAGTA	0.25
AGTCCAAC	-0.0182
GGGGTTCA	0.142
ATCTTTCA	0.123
AGTCTTGC	-0.083
AGATTTGA	0.0395
GCGCCCTA	-0.174
AAAAAGTG	0.149
ACAAGCAC	-0.0443
GTGTACGA	-0.0704

Sequence	PBM E-score
ATAGTGAT	0.0941
CCTGAAAA	0.0275
GCCCAGAC	-0.38
CCGGTCGC	-0.072
ACTCTTAC	0.203
CGGTCCGA	0.264
AAGTGTAG	0.101
AATAGGAG	-0.101
GACGCAGC	-0.199
TAGAAAGA	0.0934
ACTAGGAG	-0.183
AGAAGCGC	0.169
AATTGAAG	0.115
CCAACTAC	0.0889
TATTAATA	0.167
CCATCGAG	-0.0246
CCGCTCAG	-0.223
ACGGACAC	0.0824
CTCCTCGA	-0.14
CTTCGCGC	0.0638
CAACACGG	-0.0337
AAGGGACT	-0.0504
CAGCCTAA	-0.189
GACACAGA	0.11
AAGATTCA	0.137

Sequence	PBM E-score
AAGACTAT	-0.0585
CCACGCCG	-0.166
AATGGTTA	0.0529
GTCTCCAC	-0.31
AAGGCAGA	-0.0787
CTCTGGTC	-0.00832
CGATCCTC	-0.124
TCCATAAA	0.0101
CCCTATAA	-0.0777
ACGTACTC	0.117
AGATAATC	0.166
CAGCGATA	-0.00603
GATCCAGA	0.0236
CTGGACTA	-0.0898
CAGGTTCA	-0.241
GCGATCTA	-0.0775
CGTGTGAA	-0.0949
CCAAGGAG	-0.0556
ATCGAGAC	-0.0345
ATCGTGCA	-0.0757
AGCCATAT	-0.0473
GTTCATAA	0.0125
AATCTACC	0.121
GTCTGTTA	0.00506
GACACCTA	-0.0336

Sequence	PBM E-score
CAGCAGTC	-0.12
CCATATAC	0.0631
ATTGATAG	0.188
AGGGCGGC	-0.165
ACACTTCT	-0.154
CTATGAAA	0.0309
ATATAACA	0.309
ACTGTCCG	0.236
TGCGTACA	-0.15
CGCTGAGA	-0.128
TACAACAA	0.286
GCCAGAAA	0.195
AACCTTAC	0.169
CTGTGGTA	-0.0857
ACTTTGGA	0.194
CTGGGAAC	-0.091
GCATCCAC	-0.107
GGTTTAAC	0.142
ATGCGTTG	0.00619
ACTCTCTC	-0.136
GACTTAAA	0.0559
ACTGTTTG	-0.0205
AGTATACA	0.106
CAGAGCAG	-0.106
ACAAGAAT	0.167

Sequence	PBM E-score
AATTGTAC	0.146
ACGGCCCG	-0.0453
GAGTGCGA	0.0338
CAACATAC	0.131
ACTTCACA	0.0747
CCCAACGC	-0.103
CTTAAGCC	-0.0749
ACAAGCGC	-0.0824
CTGCCACC	-0.297
ACCGAATC	0.0139
GCATGTCC	-0.0294
ACGCATCT	0.0685
CAGTCGCA	-0.206
CGGCTCAG	-0.117
CATGATAA	0.217
TGTAGACA	0.0884
ATCGTGTA	0.00282
CTCGGAAC	0.182
ACGCATAG	0.00972
CTGTTCTA	0.0446
CGGGGCCA	-0.0153
CACACCTA	-0.0151
